Results published in article PMC10668032.
Some of the results follow. At the low end of the ranking the order means little.

The sequences below were run against SIX1 homeodomain (reference allele) (UniProt Q15475) (assay: universal protein binding microarray). Details: Universal all-10-mer PBM (8x60K, AMADID 030236), 300 nM GST-tagged protein, Alexa Fluor 488 anti-GST; buffer, salt, pH and temperature not stated; high values mean tight binding; most listed sequences are background and not binding sites; double strand, one strand shown.

| Sequence | binding signal [E-score] |
| --- | --- |
| CACTTGGG | -0.233 |
| AGAGCTAC | -0.0799 |
| GTCCCAGA | -0.0915 |
| CACTGGCA | 0.0184 |
| CCGATATC | 0.457 |
| AGATGCAC | 0.131 |
| ATATCTCG | 0.378 |
| AATTTACG | -0.313 |
| CTCTCCAC | 0.0103 |
| ACAACTTA | -0.136 |
| TGAAACAA | -0.16 |
| CGAGGATA | 0.384 |
| CAGTATGC | -0.18 |
| CTGTACTC | -0.141 |
| AAATGACG | -0.0885 |
| AACTTCTC | -0.0564 |
| GATTACGA | 0.0593 |
| GACCAGTC | -0.23 |
| CTTGAGGA | -0.0199 |
| CTTGTGTC | 0.0364 |
| TTCCACAA | 0.00992 |
| AAAGCCTT | -0.263 |
| AAAATGCC | -0.0903 |
| CCATAAGA | 0.043 |
| GAGTCACC | -0.158 |

| Sequence | binding signal [E-score] |
| --- | --- |
| CTGAGGCC | -0.148 |
| AACCATCA | -0.183 |
| CGATATCG | 0.439 |
| ACTACGGG | 0.0779 |
| AAACGATC | 0.216 |
| CCTTCAAC | -0.184 |
| AACCAGGC | -0.113 |
| TGATTAAA | -0.0609 |
| AGGAGGAT | 0.316 |
| CTCAATGC | 0.0418 |
| AAGCGACC | -0.109 |
| AGATCCAC | 0.308 |
| CCACGGGG | 0.0561 |
| GGACAAAA | -0.256 |
| CATCTTAA | -0.0495 |
| ACCTGCAG | 0.0108 |
| TTACTGAA | 0.00381 |
| CCGGGTCA | 0.265 |
| AGATTAGG | 0.0406 |
| CTAGTCCC | -0.143 |
| TCTTAAAA | -0.106 |
| TGCTCTAA | -0.149 |
| CTCTGTCC | -0.0971 |
| GTCTACGA | -0.219 |
| CATTTGGC | -0.162 |

| Sequence | binding signal [E-score] |
| --- | --- |
| ATAGTGTA | 0.205 |
| CCCGCTTC | -0.115 |
| CTAACCTC | -0.104 |
| ATCGCGAG | 0.198 |
| AGCTATAG | -0.0499 |
| AGCGTCCC | -0.0405 |
| AGCGCCTC | -0.229 |
| TACATAAA | 0.149 |
| AGCGTTAC | -0.186 |
| AATGGTAA | -0.173 |
| TGACTACA | -0.139 |
| CTTCAATC | -0.106 |
| ACCCAGAA | -0.0523 |
| CGCTAAGC | -0.11 |
| CAGCGCGG | 0.0111 |
| GACGGCTA | 0.0286 |
| AGAACTCT | -0.115 |
| AAGGCAAT | -0.165 |
| AATTACTG | -0.0632 |
| AGCACGAC | -0.234 |
| ATTAACCC | 0.129 |
| AATAAAAG | -0.262 |
| TAAAAAGA | -0.185 |
| CATTCGAA | -0.22 |
| AGCAATGC | -0.128 |

| Sequence | binding signal [E-score] |
| --- | --- |
| ACGGGGGG | -0.0613 |
| ATCAACCC | 0.336 |
| CAAGACGG | 0.112 |
| CTAGTACC | -0.017 |
| AAACGGAC | -0.16 |
| ACCCTGCG | 0.00917 |
| CCCTTATA | 0.0926 |
| CCAAAGCC | -0.367 |
| CAGAAATG | -0.0902 |
| CTCTAGTA | 0.0845 |
| AGGAGCAC | -0.0928 |
| ACGGAAGA | 0.0394 |
| AACGTATA | 0.167 |
| CCGTTGCA | -0.118 |
| CTGTCATA | -0.105 |
| AACCTCCC | -0.0286 |
| GTCAACTA | -0.101 |
| AGGCGAAG | -0.00643 |
| CTGAGTTC | -0.0295 |
| GTCACGAA | 0.0421 |
| TCGTTCAA | -0.127 |
| AACAACGG | -0.132 |
| ACGACTCT | -0.0206 |
| AAACCACC | -0.0121 |
| AGCTAATA | 0.0464 |

| Sequence | binding signal [E-score] |
| --- | --- |
| CCAGTGCA | -0.0821 |
| AGGTTAGA | -0.176 |
| GCAATCGA | -0.014 |
| CGATAGAA | -0.0265 |
| AATTTGAA | -0.211 |
| AACCAATT | -0.136 |
| CTTTGTAC | -0.249 |
| ACATAGAA | -0.113 |
| CTATGACA | 0.00261 |
| ATTTCTCA | -0.166 |
| AAGTGATA | 0.397 |
| GGAGATAA | 0.0297 |
| GCTCCATA | -0.0388 |
| TCCATAGA | -0.132 |
| ACCGAGTA | 0.103 |
| AGCCTTGG | -0.117 |
| CGTAAATC | -0.127 |
| CCTCAACC | -0.144 |
| AAGCTTCT | -0.0108 |
| TACTGCAA | 0.163 |
| GATTCAAC | -0.0707 |
| ACGGTGAA | -0.00634 |
| CGGGGTCA | 0.221 |
| CACACAGA | 0.0258 |
| CAGGGCAA | -0.104 |

| Sequence | binding signal [E-score] |
| --- | --- |
| GTAGCAGA | 0.0862 |
| ACTCTCTC | -0.155 |
| AAGCAACG | -0.131 |
| GCCAGAAA | -0.197 |
| AATCGGCA | -0.0864 |
| CGTTATTA | -0.117 |
| CGCCACGC | -0.193 |
| CACACAAA | -0.0848 |
| CGTATCGC | 0.453 |
| ATTGATCG | 0.121 |
| AAGTTGCA | -0.216 |
| CTCCTGCA | -0.0731 |
| ACAGGGAG | -0.174 |
| GCGTTACC | -0.0629 |
| TGCTTGAA | -0.0891 |
| CGTAATTA | -0.157 |
| AGAGGACA | -0.0731 |
| CAGTTGCG | -0.0735 |
| TAACGGTA | -0.0381 |
| CGCTGAGA | 0.0988 |
| ATTCCAAC | -0.0463 |
| AAGGGTCG | -0.0732 |
| ACGAAAAG | -0.212 |
| CCGTTAAG | -0.17 |
| CACATGAC | -0.13 |

| Sequence | binding signal [E-score] |
| --- | --- |
| AGTACAGC | -0.123 |
| ACGGGGTC | 0.0842 |
| CACGACAA | -0.212 |
| ATCTGTAG | 0.0536 |
| CTGGAGTC | -0.106 |
| AGTGACCA | 0.0782 |
| ACTATAAT | 0.0174 |
| CTTGCACC | 0.0664 |
| CCTGCAGC | -0.0156 |
| GAAATGTA | -0.0722 |
| GCAGGCGC | -0.225 |
| ATACTCCA | 0.336 |
| GGCATATA | 0.29 |
| AAAGAACT | -0.256 |
| CCTGTTCC | -0.0919 |
| CCTACACC | 0.163 |
| CTCATGAC | 0.0566 |
| CATTATTC | -0.0194 |
| CAATCTGA | 0.103 |
| AGTTATTA | -0.122 |
| CTAGCATA | -0.077 |
| AGTTTAGG | -0.2 |
| CACACGAA | -0.0903 |
| CTTATACC | 0.275 |
| CGACAAGA | 0.0328 |

| Sequence | binding signal [E-score] |
| --- | --- |
| GTCCCCGA | -0.146 |
| GGCAATAA | -0.183 |
| TTCCGCAA | -0.0115 |
| ACCGTACA | 0.0208 |
| GGTTTAAA | 0.187 |
| CTCGTTAC | -0.0363 |
| CCATCAGC | -0.0149 |
| CAGGTCTA | -0.158 |
| AACGGAGA | 0.0299 |
| CACCTAAA | -0.17 |
| CCTGGGAG | 0.0788 |
| GGCATTTA | -0.149 |
| AGGGATCG | 0.386 |
| AGAAGAGG | -0.0247 |
| CCGTTCCG | -0.197 |
| AGCCGTCC | -0.0611 |
| CAAAGAGA | -0.166 |
| CACCATAA | 0.0675 |
| AGTGCGTA | -0.0896 |
| TAGAGAAA | 0.0618 |
| CCGGAATC | 0.103 |
| AATTTCTC | -0.182 |
| CACCTTTA | 0.0292 |
| CTAAGTCC | -0.268 |
| CCCGGGCC | -0.0791 |

| Sequence | binding signal [E-score] |
| --- | --- |
| GATCCAGC | 0.265 |
| AATACCCC | 0.427 |
| CCTGTCTA | 0.0036 |
| AATCGACG | -0.214 |
| GGAACCCA | 0.0497 |
| AATCGGTA | -0.0164 |
| CAGACCTG | -0.105 |
| GGGCCAAC | -0.174 |
| ACCGTCGA | -0.0383 |
| AACTCCGA | 0.0772 |
| GCAATAGA | -0.0292 |
| CCCCCCGC | 0.101 |
| TTCTCCAA | 0.0129 |
| GAGTGTAA | -0.187 |
| ACCCGCCC | 0.0643 |
| ACAGCACG | 0.0849 |
| ACAATGCA | 0.074 |
| AAGAGGCC | -0.3 |
| CCTTGTGC | -0.105 |
